Reference: the supplement of paper PMC11417369
The list shows a part of the results.

Tested on: PfSIP2 AP2 domain 1 (GST-tagged)
Test: gcPBM binding intensity (ln(normalized median fluorescence intensity)); higher = stronger DNA binding
How it was run: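 Alexa488 anti-GST antibody, scanned at 488 nm, detected GST-tagged P. falciparum DNA-binding domains that had been expressed in E. coli and incubated for 1 h on an Agilent 4 × 180k array. The array carried primer-extended double-stranded 36-bp intergenic genomic probes and negative controls. Binding intensity is the highest Masliner-normalised natural-log median intensity across replicate spots of either orientation of each probe.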

Sequence	gcPBM binding intensity (ln)
TTTTTATTTTTTTATTTCTTATCAAATAAAATATAT [XGTACX_negctrl_site537]	6.84
TTACAAAAAGGTAATTTACACACTGCATATAGGAAT [CACACA_site8956]	7.11
TCTTAATATGGTAATACACACTAATATACTTTTGTT [CACACA_site4969]	7.02
ACCCTTCAATTTAATTGTACAAGAAAAAAAAAAAAA [XGTACX_site2927]	7.3
TGCTCAAACTTTACAAATGAACGAATATAAAAAAAG [CACACA_negctrl_site541]	7.07
AAATAATCATAAAATAAACACACATATATAAATATA [CACACA_site7981]	6.84
ATTCTTTTTTTTTTCTTATATTCTAATCACCACCTT [XGTACX_negctrl_site179]	7.25
TAAAATTAAATGAAATCATTATTCATTTTTATTTTA [CACACA_negctrl_site1281]	6.67
CATATAAATAAACACACACACACATATATATATATA [CACACA_site5309]	9.47
AATAGGTGCCTTTTTTCACACACATGTCAACTAAAT [CACACA_site8846]	9.34
TTTGGTAAGCGTGTCGCATGTAGAACAAGTCTACAT [TGCATGCA_site577]	6.44
ATGAAATTATTATATAAACACACATTTATTTTATTT [CACACA_site8597]	6.83
AGGAACATTTACGCCCCACACACCTACCAACAAAAA [CACACA_site3827]	7.25
ATTAAAATGGAGTATTAATATGATATATATATATAT [GTGCAC_negctrl_site509]	9.32
TAAATACAGACATACACACATACACCCACATATATA [CACACA_site547]	7.13
TATATATATATTTTTGGTACAGATATTTTCTTCTCT [XGTACX_site4432]	8.7
TTACAACCATAAAATGCATGTAAATGACAAAAAAAA [TGCATGCA_site944]	6.81
AATATATATATATATTGTACACACATTTATGCATAT [XGTACX_site6856]	7.38
ATCATATCCACCAAATGAATAATATAAAATAATATA [XGTACX_negctrl_site193]	7
AAATAACATAATAAGGGTACATTAATTTCGATAATG [XGTACX_site835]	6.83
TATATATATATATATGCACACATTTATACAATTTTA [CACACA_site2986]	9.71
AGAAAAAAAAAAAAAAAACACACGGTACATCCAAAG [CACACA_site124]	6.79

Sequence	gcPBM binding intensity (ln)
ATCAAATTATAATCATGTACAAATAAAAAAAAAAAA [XGTACX_site313]	7
AAATATCTACAAATATGTACATATTTTTTTTGGCTT [XGTACX_site6301]	6.85
TATTTTGTCATAGAACGTACTTATAAATATTTTTTT [XGTACX_site8424]	7.01
ATAGAAGCTGTTGACGAAGAAAAAAAAAAAAAAAAA [CACACA_negctrl_site110]	6.86
TAGATATTTTTGAAAAGTACAAATTTTTAAAAATTA [XGTACX_site4420]	6.95
TTATATAATGACAAAAAAAAAAAAAAAAAAAAAAAA [CACACA_negctrl_site1467]	7.05
GTATGATTACAAGAAAGTAGTCCACTTTAACAACAA [CACACA_negctrl_site1304]	7.07
TAATTTATCCTATAATGTACTTATAAAATATATCAT [XGTACX_site1460]	6.99
ATGTACATAAACCGCACACATATAAAAAAATAAATA [CACACA_site5571]	7.47
AGTCCATTTTATTATTGTACATATTAATTTATATCA [XGTACX_site672]	7.5
ATTCAGAGTATATAAAAATTAATATATACATAATAT [CACACA_negctrl_site1782]	6.86
ATATATATATAAATATGTACATATATACATATATAC [XGTACX_site2374]	8.85
AATATTTTGTTATTTATTTAATCTAATATTACTATC [CACACA_negctrl_site4]	6.67
AAAAAAAAAAAATACACACAAACACAAATTAAATAA [CACACA_site3809]	7.07
ATTATAGAATATTGAAGTACAAAATTTAAAATAAGT [XGTACX_site1468]	7.38
TAGGAAAATTACAAAAGTACTTGGCACATAATAATG [XGTACX_site6005]	6.93
TGTTATGAGAACAGCACACAAGCTACATCATATATA [CACACA_site870]	6.8
TATATATAAGATTGATGTACGATTTTGGTGTCTTAT [XGTACX_site2611]	6.92
TATTATAGTATATATTGTACATATATATATTTTTTA [XGTACX_site8831]	7
ATAATAATATATAGTACACACAAAAATGGAAGTAAA [CACACA_site3318]	7.25
TAAAAATATTATAATGCATGCAAAATATTGTTATAA [TGCATGCA_site244]	6.96
ATAGTTTTTCCAATTCAAAAAAAAAAAAAAAAAAAA [CACACA_negctrl_site969]	6.91

Sequence	gcPBM binding intensity (ln)
AAAGTATAAATAAATACACACATATTTATTTATATA [CACACA_site7375]	6.91
AACATATGATTAAACTGTACAAGAAAAATATAACAT [XGTACX_site4477]	7.28
GAGAGGATCATCAATTCACACACATAAAAATGAAGT [CACACA_site9010]	6.81
GTAATACCCAAACACACACACATACCCATATATATA [CACACA_site5510]	7.52
AGAAAGTAAAGCTGTTGTACTATTATATATATTTTA [XGTACX_site8090]	6.82
TTTCTTTTTAAATAATAATGTATAATAAAAAGTTCA [TGCATGCA_negctrl_site195]	6.97
TTTGTTTGATATATGTGTACATATATATATTATGCT [XGTACX_site3522]	7.22
TATAATATGTATATCTGTACATATTTTAAATCTAAT [XGTACX_site2426]	6.86
AAGTACAATTCATGTATGCACTTTATTATATTTTAT	8.14
AAGATAAAATAATAAAGTACACATATAAATTGAAAA [XGTACX_site2113]	7
TAATTTTTTAAATTTAAACACACATTTTGTATATGT [CACACA_site8479]	6.94
TGATACGTATTTATTTCACACACGTTAAAAAAATAA [CACACA_site3914]	7.01
TATATATATATATATTGTACGAACCTTTTTTTTTTT [XGTACX_site4169]	9.26
CTAACACTAATTTTTTGTACACAATATGTAAATAAA [XGTACX_site6424]	7.28
ATTTTTACATAGGAAGCATGCATATTTTAAAAATAA [TGCATGCA_site1046]	6.81
TTATTTCTGAATATTTTTTTTTTTTCTTCTTTTTTA [CACACA_negctrl_site815]	6.5
CATGTGTTCTATATTTATGTCTAACTTTTTAATTAA [CACACA_negctrl_site904]	6.97
TAATGTAATACATATTGTACACATACATATATATTT [XGTACX_site7531]	6.99
ATATATAATCATCACACATGCAGCCCTGATGAAAAA [TGCATGCA_site687]	6.93
GGGTATACCAATATAACACACATATATCTATAATAT [CACACA_site6348]	6.9
TATAAATTTTTATTTACATGCAGTTATTATTTCCAT [TGCATGCA_site41]	6.8
TTTTTGTTACCTATTGTGCACTTCATATAAATTAAA	10.8

Sequence	gcPBM binding intensity (ln)
TATTAAAAGGTTAAAGCATGCATACATATATATGTT [TGCATGCA_site865]	6.89
AATAATAAATAAAAATGTACACATACATTTCTATCC [XGTACX_site7057]	6.98
ATATATATATATATATGTACATATTTATATTGTAAA [XGTACX_site8878]	9.45
GTAATTTTATATGGTTGTACATATATATATATATAT [XGTACX_site6659]	9.68
ATATATATATATATATATATTTATATGTGAAAACCC [CACACA_negctrl_site845]	9.3
TTATACCTGATTTAGGTGCTATAAATTTGTGTTTTT	7.06
ATATATATATATATGTGTACTTATATATTTAAAAAA [XGTACX_site1761]	8.89
CGCATAAAGACAAGAACACACATATATATTGTAGTA [CACACA_site5938]	7
CAACAACAAAAAAAAAAATAATAATAATAAAAAATA [TGCATGCA_negctrl_site271]	6.71
TATTTTTTAAAAAAATGTCATAAAATTTCTTTTTTC [XGTACX_negctrl_site271]	6.64
ATATACAAAGGATTAACACACATATTATTATATATA [CACACA_site1880]	6.87
AGAAAAAAATAATGTACACACACATATATGTTTATA [CACACA_site7946]	6.94
TAAATGTCTGTTAATGCACACGATATGTCTATATAT [CACACA_site2352]	7.19
CTTTCTATATAAAATCGTACATATATAATATTATAT [XGTACX_site5807]	7.3
TATATTAAGAAACACACACACATATATATATATATA [CACACA_site1609]	9.76
TTCCTATTTCCTATGTGTACTTATAAATAAGTGTCT [XGTACX_site3725]	7.14
GAAATTATAAATTGGACACACACATAAAAAATATGT [CACACA_site7957]	6.91
TATAAAATATATATCTGTACGTATTTTATTTTTTAT [XGTACX_site6257]	7.11
TATAAGCAAAGACACACACACATATAAATATAAATA [CACACA_site7740]	7.07
AATACAATATAAAGGTGTACATATATATATATATAT [XGTACX_site68]	9.18
ATGTAGATAGATAGGGTGCTAAAAATAAGATTTATA [GTGCAC_site9602]	8.92
AAAAAAAAAAAAAAAACACACACAACACCCATACCT [CACACA_site9208]	7.89
